This assay has as its target T1, huIL-17R (Homo sapiens, UniProt Q96F46).
T1 construct: FLAG (the F of FpH); polyHis (the pH of FpH)
T1 sequence (Q96F46 with tags, fused parts or gaps): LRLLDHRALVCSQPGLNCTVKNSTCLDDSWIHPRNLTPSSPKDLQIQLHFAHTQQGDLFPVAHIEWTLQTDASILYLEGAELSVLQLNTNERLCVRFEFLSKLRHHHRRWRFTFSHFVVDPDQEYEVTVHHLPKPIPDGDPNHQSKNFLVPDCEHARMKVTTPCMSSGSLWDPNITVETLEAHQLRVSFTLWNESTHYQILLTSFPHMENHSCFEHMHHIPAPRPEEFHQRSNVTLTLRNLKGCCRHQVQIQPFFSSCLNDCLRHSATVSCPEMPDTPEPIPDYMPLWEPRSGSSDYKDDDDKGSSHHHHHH
The assay can be described thus: BIAcore solution equilibrium binding assay to huIL-17R (16429 immobilized). Conditions: for IL-17R binding capability: 10 nM, 100 nM and 1000 nM antibody incubated with 10 nM IL-17R (FIG. 2A); for IL-17R binding activity: 30 μM antibody with 30 nM IL-17R (FIG. 2B). On the procedure: Antibody 16429 was immobilized to a CM5 sensor chip, and 10 nM of IL-17R in the absence of antibody was used to establish the 100% binding signal of […] that is free of antibody binding in solution. In FIG. 2A, 10 nM, 100 nM and 1000 nM of indicated antibody samples were incubated with the 10 nM IL-17R to determine antibody binding in solution. In FIG. 2B, 30,000 nM of the antibody samples were incubated with 30 nM IL-17R to determine antibody binding in solution. In FIGS. 2A-B, The decreased binding signal of IL-17R after the antibody incubation indicates the binding of the antibody to IL-17R in solution.
A reference antigen binding protein (e.g., Antibody 16429 for human IL-17R or Antibody 16449 for human TR2) is immobilized to a BIACore® 2000, research grade sensor chip CM5 surface according to manufacturer's instructions (BIACore, Inc., Piscataway, N.J.). Carboxyl groups on the sensor chip surfaces are activated by injecting 60 μL of a mixture containing 0.2 M N-ethyl-N′-(dimethylaminopropyl) carbodiimide (EDC) and 0.05 M N-hydroxysuccinimide (NHS). The reference antigen binding protein is diluted in 10 mM sodium acetate, pH 4.0 and injected over the activated chip surface at 30 μL/min for 6 minutes. Excess reactive groups on the surfaces are deactivated by injecting 60 μL of 1 M ethanolamine. The final immobilized level is typically approximately 6600 resonance units (RU). Soluble target antigen (e.g., 10 nM of soluble human IL-17R or 30 nM of soluble human TR2) in the absence of soluble antigen binding protein (e.g., antibody) is used to establish the 100% binding signal to the fixed reference antigen binding protein (e.g., the positive control antibody). The decreased binding signal of the target antigen after incubation of the test immunoglobulin indicates its level of binding to the target antigen in solution.
The lead candidates were then selected based on lack of binding to the IL-17R extracellular domain as determined by BIAcore analysis. Antibody 16429 is a human antibody that specifically binds to huIL-17R. A solution equilibrium binding assay was developed to assess the binding activity of a set of antibodies to huIL-17R. Antibody 16429 was immobilized to a BIACore® 2000, research grade sensor chip CM5 surface according to manufacturer's instructions (BIACore, Inc., Piscataway, N.J.). Briefly, carboxyl groups on the sensor chip surfaces were activated by injecting 60 μL of a mixture containing 0.2 M N-ethyl-N′-(dimethylaminopropyl) carbodiimide (EDC) and 0.05 M N-hydroxysuccinimide (NHS). Antibody 16429 was diluted in 10 mM sodium acetate, pH 4.0 and injected over the activated chip surface at 30 μL/min for 6 minutes. Excess reactive groups on the surfaces were deactivated by injecting 60 μL of 1 M ethanolamine. […]
Background: Surface plasmon resonance follows binding to a sensor surface in real time, without labels.

Residue numbers refer to the chain shown, from its start. Names may count otherwise.

B1: 16435 (antibody)
heavy: MEWTWRVLFLVAAATGAHSQVQLVQSGAEVKKPGASVKVSCKASGYTFTRYGISWVRQAPGQGLEWMGWISTYSGNTNYAQKLQGRVTMTTDTSTSTAYMELRSLRSDDTAVYYCARAQLYFDYWGQGTLVTVSSASTKGPSVFPLAPCSRSTSESTAALGCLVKDYFPEPVTVSWNSGALTSGVHTFPAVLQSSGLYSLSSVVTVPSSNFGTQTYTCNVDHKPSNTKVDKTVERKCCVECPPCPAPPVAGPSVFLFPPKPKDTLMISRTPEVTCVVVDVSHEDPEVQFNWYVDGVEVHNAKTKPREEQFNSTFRVVSVLTVVHQDWLNGKEYKCKVSNKGLPAPIEKTISKTKGQPREPQVYTLPPSREEMTKNQVSLTCLVKGFYPSDIAVEWESNGQPENNYKTTPPMLDSDGSFFLYSKLTVDKSRWQQGNVFSCSVMHEALHNHYTQKSLSLSPGK
light: EIVMTQSPATLSVSPGERATLSCRASQSVSSNLAWFQQKPGQAPRLLIYDASTRATGVPARFSGSGSGTEFTLTISSLQSEDFAVYYCQQYDNWPLTFGGGTKVEIKRTVAAPSVFIFPPSDEQLKSGTASVVCLLNNFYPREAKVQWKVDNALQSGNSQESVTEQDSKDSTYSLSSTLTLSKADYEKHKVYACEVTHQGLSSPVTKSFNRGEC
modifications: 16435 (LC: P66L, D90E)
With B1, the IL-17R binding capability entry is recorded as “substantial reduction in IL-17R binding capability” and the IL-17R binding activity entry is reported as “no significant IL-17R binding activity”.

B2: 16444 (antibody)
heavy: B1 heavy with L120Q
light: B1 light with W94A
modifications: 16444 (LC: P66L, D90E, W114A)
As to B2, the IL-17R binding capability result was “substantial reduction in IL-17R binding capability” and the IL-17R binding activity result is on record as “no significant IL-17R binding activity”.

Values taken from patent US9803019B2, “Carrier immunoglobulins and uses thereof” (Amgen Inc., priority 2010, dated 2017).
